± gives the standard deviation of the averaged measurements. This is one part of the list.
Test system: PfAP2-LT AP2 domain (GST-tagged)
Assay: gcPBM binding intensity (ln(normalized median fluorescence intensity)); higher = stronger DNA binding
In short: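 Alexa488 anti-GST antibody, scanned at 488 nm, detected GST-tagged P. falciparum DNA-binding domains that had been expressed in E. coli and incubated for 1 h on an Agilent 4 × 180k array. The array carried primer-extended double-stranded 36-bp intergenic genomic probes and negative controls. Binding intensity is the highest Masliner-normalised natural-log median intensity across replicate spots of either orientation of each probe.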

Sequence	gcPBM binding intensity (ln)
TTATTTATTTATATAGTGCAATAAACACATAAATAG	8.35 ± 0.34
CATATTGGTATGCTCATGCACTTTTATTTTGTTATT [GTGCAC_site9553]	9.15 ± 0.57
AATTAGATACTAACAAGTACATATATATATATATAT [XGTACX_site2252]	9.84 ± 0.12
TTTCCCTAATGAAAGTGTACCTGTGAGAAAAAAAAG [XGTACX_site194]	8.54 ± 0.39
ATTTAGATTAACACTTGTACATAATACATACAAATA [XGTACX_site4147]	8.54 ± 0.42
ATTTTTTTTTGTGTATATAAATAAATAAATATATAT [GTGCAC_negctrl_site603]	8.37 ± 0.39
TTGTAATTATTAAACACACACAAAATATCTAGAATA [CACACA_site7231]	9.09 ± 0.35
CCGTAGTTTTAAAATAGTACTTTTATGGTTAATAAA [XGTACX_site3162]	8.35 ± 0.48
TTTTTTATTTTTTTATTGTTTTATTGTTTCATTGTT [XGTACX_negctrl_site128]	8.93 ± 0.63
TTACTACTATATTATACACACATATATTTATTTATA [CACACA_site7274]	9.01 ± 0.45
TATAAAAAGCAAAACAAAAAAACAAATTGAAAAATT [TGCATGCA_negctrl_site158]	8.63 ± 0.54
TATAAATAATAAAGATGTACTTTTTATGATTCCTAC [XGTACX_site7003]	9.21 ± 0.25
CAATTTATTTTTATTACACACTATCCAAATAATTTC [CACACA_site2956]	8.7 ± 0.46
CCATAAAATCATAAGCGTACTTAATATATTTTACTT [XGTACX_site559]	8.74 ± 0.34
AGCATACATATTTTTTGTACATATATATATATATAT [XGTACX_site8536]	9.72 ± 0.23
TATATAATAATTTAGAGTACTGATAAAATATTCCAT [XGTACX_site6200]	8.49 ± 0.44
AACATACGACAATACGCACACATATATGTACATATT [CACACA_site1917]	9.47 ± 0.33
TTAAACAATTTAGACATACACACAAAAATAATATTA [CACACA_site385]	8.97 ± 0.4
TAATTTTTCCTTTTTGCACACATTAACGTCGACGAA [CACACA_site4025]	9.12 ± 0.38
CCCTGCCTCTCTTTGGTGCGTTGTAACCCTCGAGGA	8.86 ± 0.45
AAAAAAAAAAAAAGCACACACACATATGTGTATATA [CACACA_site8225]	9.54 ± 0.28
TAAATTGTATATGAGACTATACTATAAAAGTATGAA [XGTACX_negctrl_site22]	8.6 ± 0.35
TGTCTGTGCGGGTGTACACATTTCATATTACCCAAT [CACACA_site5593]	9.05 ± 0.39

Sequence	gcPBM binding intensity (ln)
AACCTTACACAAGGGGTGCAATATTATTTCGATAAA [GTGCAC_site9600]	8.65 ± 0.43
TAATTTATAAAAAATTGTACATTAAACATATATATA [XGTACX_site5164]	8.37 ± 0.47
TGCTCCTATTATATAGTGCATTTATTTTAATAAACG	8.47 ± 0.38
TCTTTTCGTTCATGCTGTACTTAATTGCTCTAATTT [XGTACX_site4816]	8.99 ± 0.53
ACTAATATGTATATATATATATATATATATATATAT [CACACA_negctrl_site141]	9.72 ± 0.071
TACATATTTAAATACTGTACTCAAAAGAATTGTGCA [XGTACX_site2250]	8.56 ± 0.42
ATCAAAAAAAAAAAAAGTACACAAAATTTTTTATTA [XGTACX_site7986]	8.49 ± 0.52
TATATGTGTGTTATATGTACTTATATATATATATAT [XGTACX_site5570]	9.275 ± 0.064
AAGGTTTAAAATTACTGTACAAATATAAATAAATAT [XGTACX_site3756]	8.7 ± 0.41
ATAATGAACAAAGTAGTGCACTTTCCTTATCTTTTC	8.87 ± 0.46
GTTTATCACAGCCACGCACACATAATATCTGTATAT [CACACA_site5929]	9.32 ± 0.38
CTTATATTGTACAGTACACACCTTTATAATGTTATT [CACACA_site4280]	9.15 ± 0.44
GATTATTAATAGTAACGTACATATGTTATAAAATAT [XGTACX_site5277]	8.94 ± 0.47
TATAGTATTCTAAATGCATGTAAATTATGTATATAT [TGCATGCA_site931]	8.8 ± 0.28
TATATTATACTAAGAAGTACAATATTTTTATTGTAA [XGTACX_site2810]	8.35 ± 0.34
TAGTAAAAACCAAAATGTACATGTGCCATTTTTTTA [XGTACX_site2630]	8.71 ± 0.45
AAATTCCACGAACACACACACATATAAATAAATAAA [CACACA_site6697]	9.65 ± 0.36
ACATCAAGCAGACACACACACACACGCACACGCACA [CACACA_site6309]	10.4 ± 0.17
ACTATTCATGCATATACACACACATATATATATATT [CACACA_site9309]	9.58 ± 0.33
TTGTTTCTCTTTAAAAGTACAAAAATGGTTACATAT [XGTACX_site3109]	8.51 ± 0.49
TAGATTTTTTAATGTTGTACAAATATACGATATATA [XGTACX_site3258]	8.57 ± 0.32
AAATATATATAAAAGTGTACATTTGTTATAATCAGT [XGTACX_site4822]	9.01 ± 0.36
TAGATATATAATTTTTGTACGTAGTCGAATCTCAGA [XGTACX_site765]	8.54 ± 0.39

Sequence	gcPBM binding intensity (ln)
AACATTAAAAGGGATACACACATATAAATAAATAAT [CACACA_site489]	9.29 ± 0.45
CTCAACAAAATATGAGTGCATTGTTATTACATATAT	8.93 ± 0.48
TTATATATTTCTACTCATATTACAATGTGAGAAATA [CACACA_negctrl_site873]	8.3 ± 0.42
CCAACTAAAAAGGAATGTACATAGTTATGGTTGGAA [XGTACX_site8762]	9.04 ± 0.53
ACTTTAAACAAAAAAAGTACTCTTTAATGAATATAT [XGTACX_site7176]	8.39 ± 0.43
TATATATATATATATATATATATATATATATGTTGT [TGCATGCA_negctrl_site24]	10.24 ± 0.085
CAATTTCTCTTAATTTGTACATATATGTTATACAAA [XGTACX_site3231]	8.65 ± 0.43
CAATATTTTATTTAAGCATGCTCTAGGGTGTAAAAG [TGCATGCA_site1001]	8.59 ± 0.45
TATAAATATATTTATACACACATTAGTGTATACATG [CACACA_site7397]	9.04 ± 0.45
TCGTGTTAAATTTTTACACACAAACTTGCAATAATT [CACACA_site3824]	9.04 ± 0.3
AACTATAACTAAAAAAATCACATAAAATATTTTATT [TGCATGCA_negctrl_site363]	8.44 ± 0.46
AGGTGAAAAATATATAATAATGTAACAAAAAAAAAT [XGTACX_negctrl_site394]	8.9 ± 0.58
TGTTCTATTCTATTATTATTTACAAATTATAAATAA [GTGCAC_negctrl_site232]	8.39 ± 0.38
ATATATTTATAATAGGTGCATATGTTTTATTTTTCC [GTGCAC_site9849]	8.82 ± 0.42
TATATATATTAGTGTGCACACTTTTTATTTTTATCC [CACACA_site8506]	9.44 ± 0.53
TGTAATAAATAGTACACACACACATATATATATATT [CACACA_site1388]	9.76 ± 0.11
AGATATGTTTTTAATTGTACATAAATACACAAATAT [XGTACX_site5981]	8.62 ± 0.4
AAAGAATTATATAAGGTGCACGAATGTTTCTTTAAT	8.89 ± 0.38
ATATGTGTGTGTATTTGTACCCAATTTTTATATATA [XGTACX_site4948]	9.47 ± 0.16
AAAAAAAAAAAAAAAAAAAAAATACATATATATATA [CACACA_negctrl_site290]	9.05 ± 0.38
ATATTTTTTTTTGTTAGTACTCATATTTGTAGTTTT [XGTACX_site7280]	9.02 ± 0.59
TTTTTAATTTCAATGGTGCAGTAATAATATAATAGT	8.48 ± 0.38
CATTTAAGACAAATTACACACGTATGCCAAATATAT [CACACA_site431]	9.18 ± 0.33

Sequence	gcPBM binding intensity (ln)
AATATATATAATTATAGTACAGAAAATTAAAAAAGA [XGTACX_site2943]	8.72 ± 0.61
TATATCTTATTTAACACACACAAAGAAAATAGAAAA [CACACA_site3732]	9.02 ± 0.4
AACAATAAAAATAATTGTACAAGTTTAAAAAAAATT [XGTACX_site1987]	8.81 ± 0.49
TCTTTAAATTTCTCAACACACAGTTATAAAAAATAA [CACACA_site2856]	8.26 ± 0.47
TACAAGTATAAATAAGCACACATGTGGATATGTACA [CACACA_site4229]	9.39 ± 0.3
ATGAATCCTTAATATGAACACACAAATATATTACAC [CACACA_site7943]	8.96 ± 0.38
TTTTTTATTTATCCTATATATTACTAAATGAAGAAC [GTGCAC_negctrl_site333]	8.34 ± 0.53
TTATTTCAAAGTAAATCAGTAAATATTTGTTTTCTT [CACACA_negctrl_site1572]	8.34 ± 0.47
TCCTTATTTATATAATGTACTTTTTTTTTTCATTTT [XGTACX_site4275]	8.69 ± 0.36
TAAAGTTAAAAATTATGTACATATATATTGTATATT [XGTACX_site5528]	8.68 ± 0.4
GATAAAATAGGACCATATTCTTTAAAACGATAAAAT [XGTACX_negctrl_site405]	8.73 ± 0.51
ATATATATATATTTATGTACATATACATAATGTATA [XGTACX_site6387]	8.88 ± 0.35
TTATTTTATATATCACGTACATAGTTGTCTTCTTTT [XGTACX_site2906]	8.97 ± 0.47
TAAGAAGTATTTTCCTGTACATATTTTATATGTATG [XGTACX_site4658]	8.78 ± 0.36
AAAATATAAAATAATGCACACATAAACAAAAAATCA [CACACA_site8382]	9.16 ± 0.48
TAGTAAATAACAAAAGGAAAAATTAATGAGGCAAAA [TGCATGCA_negctrl_site526]	8.8 ± 0.47
CATCATAGCATTCCTCGTACAAATATAAACATATCA [XGTACX_site2711]	8.8 ± 0.55
ATGTTTTGTAAAATGATTAAATATTAAGATTCAATA [CACACA_negctrl_site1743]	8.39 ± 0.38
CTTAGAGTATTTAAATGTACACGTTTGTATATGTAT [XGTACX_site1767]	8.81 ± 0.47
TAAAAAAAAATAAATACATGCATATAATACATTATA [TGCATGCA_site518]	8.72 ± 0.4

Source: the supplement of paper PMC11417369
